Test results as given in article PMC4336329 (PLoS ONE, 2015).
Screen size: about 310,000 compounds; about 14,000 (4.5%) showed an effect of 50% or more. Effects have a minus sign here. This is one part of the list.

Target: human ether-à-go-go-related gene (hERG) potassium channel (human, UniProt Q12809)
Experiment: primary screen, population patch clamp on CHO cells stably expressing hERG
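Further: peak tail current of the secondary pulse compared with the same well before compound.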

Chain of human ether-à-go-go-related gene (hERG) potassium channel (Q12809 whole entry, looked up): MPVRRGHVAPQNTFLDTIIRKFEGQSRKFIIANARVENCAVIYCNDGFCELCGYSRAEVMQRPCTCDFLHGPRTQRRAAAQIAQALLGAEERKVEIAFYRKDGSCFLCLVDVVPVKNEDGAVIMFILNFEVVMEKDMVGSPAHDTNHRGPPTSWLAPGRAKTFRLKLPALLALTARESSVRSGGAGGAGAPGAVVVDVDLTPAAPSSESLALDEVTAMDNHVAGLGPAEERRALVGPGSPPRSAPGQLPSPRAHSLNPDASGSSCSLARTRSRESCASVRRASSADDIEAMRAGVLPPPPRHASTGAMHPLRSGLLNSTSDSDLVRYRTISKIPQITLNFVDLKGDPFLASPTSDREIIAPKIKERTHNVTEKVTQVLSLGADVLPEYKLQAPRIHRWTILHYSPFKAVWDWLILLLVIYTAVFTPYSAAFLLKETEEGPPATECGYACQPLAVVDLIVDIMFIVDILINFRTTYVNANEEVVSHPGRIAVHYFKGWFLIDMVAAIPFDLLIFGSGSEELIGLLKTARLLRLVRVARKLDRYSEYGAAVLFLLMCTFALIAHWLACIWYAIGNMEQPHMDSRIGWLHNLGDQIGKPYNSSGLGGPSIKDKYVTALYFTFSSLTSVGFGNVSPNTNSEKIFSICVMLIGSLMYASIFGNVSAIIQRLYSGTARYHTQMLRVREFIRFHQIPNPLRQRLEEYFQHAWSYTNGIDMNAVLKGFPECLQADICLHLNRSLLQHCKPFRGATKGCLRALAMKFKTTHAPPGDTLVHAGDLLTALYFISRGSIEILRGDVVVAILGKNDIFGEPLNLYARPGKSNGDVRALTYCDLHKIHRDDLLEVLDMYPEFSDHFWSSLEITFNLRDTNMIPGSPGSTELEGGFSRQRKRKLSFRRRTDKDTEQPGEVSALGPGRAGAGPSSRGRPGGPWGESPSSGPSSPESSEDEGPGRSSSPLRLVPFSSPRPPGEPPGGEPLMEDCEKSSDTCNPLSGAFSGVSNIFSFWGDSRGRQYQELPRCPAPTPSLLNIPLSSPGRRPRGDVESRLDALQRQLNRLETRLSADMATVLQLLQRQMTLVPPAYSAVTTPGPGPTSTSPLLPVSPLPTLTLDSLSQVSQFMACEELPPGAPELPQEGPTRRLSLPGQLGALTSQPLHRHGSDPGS

Row | SMILES | hERG current change (%, negative = inhibition) at 10uM
1 | COC(=O)CSc1nc(C)c2c(n1)CCCC2 | -17.4%
2 | O=C1NC(=O)N(Cc2ccccc2)C(=O)/C1=C/c1cnc(-c2ccccc2)nc1 | 15.3%
3 | Cc1cccc(-n2[nH]c3c4c(ccc3c2=O)C(=O)c2ccccc2C4=O)c1 | 4.95%
4 | O=S(=O)(NCC1CCCO1)c1cccc2nsnc12 (stereo not drawn) | 6.69%
5 | COc1ccc(NC(=S)N2CCOCC2)c(OC)c1 | 10.7%
6 | Cn1c(SCC(=O)N2CCN(S(=O)(=O)c3ccccc3)CC2)nc2ccccc21 | -13.8%
7 | CC(=O)NC(Cc1ccc(F)cc1)C(=O)NC1CCN(c2ncccc2[N+](=O)[O-])CC1 (stereo not drawn) | 11.1%
8 | CCN(CC)C(=O)c1ccc(NC(=O)COC(=O)c2ccc(Cl)s2)cc1 | -18.2%
9 | [N-]=[N+]=NC[C@H](Cc1ccccc1)N1CC[C@@H](NC(=O)OCc2ccccc2)CCC1=O | -52.5%
10 | FC(F)(F)c1cccc(OCC2CNC(=S)O2)c1 (stereo not drawn) | 0.125%
11 | CC(C)OCCCNC(=O)CCC(=O)NNc1nc2ccccc2c2nc(-c3ccccc3)nn12 | -31.4%
12 | Cc1cccc(C)c1NC(=O)CCCCCNS(=O)(=O)c1ccccc1 | 5.08%
13 | COc1cc(C(=O)OCCc2c(C)nc3nc[nH]n3c2=O)cc(OC)c1OC | 27.6%
14 | CCN(CC)S(=O)(=O)c1cccc(C(=O)Nc2cc3oc4ccccc4c3cc2OC)c1 | -1.19%
15 | COc1ccc(NC(C)=O)cc1NC(C)C(=O)Nc1cccc(S(=O)(=O)N2CCOCC2)c1 (stereo not drawn) | 13.4%
16 | O=C(Cc1ccccc1)NCC(=O)OCC(=O)c1ccc(Cl)cc1 | 11.3%
17 | O=C(COC(=O)c1cccc(S(=O)(=O)N2CCOCC2)c1)Nc1nc(-c2ccccc2Cl)cs1 | -14.5%
18 | CNCC(=O)Nc1ccc(OC(F)(F)F)cc1.Cl | -3.92%
19 | Oc1oc(-c2ccccc2)nc1C=NCc1ccccc1 | 6.78%
20 | c1ccc(P(c2ccccn2)c2ccccn2)cc1 | 9.53%
21 | CC(=O)c1c(C)oc2ccc(OCc3ccccc3)cc12 | 0.181%
22 | CCC/C=C(\CCC)C(NC(=O)c1ccc(C(=O)OC)cc1)c1ccc(C(=O)OC)cc1 (stereo not drawn) | 15.3%
23 | Cc1c(C(=O)N2CCOCC2)oc2c1C(=O)CC(C)(C)C2 | -1.59%
24 | O=C(c1csc2c1CCCC2)N1CCN(c2ncccn2)CC1 | -25.1%
25 | CSc1ccccc1C(=O)N(CC1CCCO1)c1c(N)n(Cc2ccccc2)c(=O)[nH]c1=O (stereo not drawn) | -1.39%
26 | O=C(NC1CCCC1)C(c1ccccc1)N(Cc1ccc2c(c1)OCO2)C(=O)Cc1cccs1 (stereo not drawn) | 6.01%
27 | O=C(CSc1ncnc2ccccc12)NCCc1ccccc1 | 3.01%

Row | SMILES | hERG current change (%, negative = inhibition) at 10uM
28 | CCN(c1ccc(NC(=O)c2ccc(Cl)nc2)cc1)C(C)C | -1.54%
29 | CCN(CC)S(=O)(=O)c1cccc(C(=O)OCC(=O)NCCN2C(=O)CSC2=O)c1 | -16.8%
30 | O=c1[nH]cnc2sc3c(c12)CN(Cc1ccccc1)CC3 | 5.56%
31 | CC(Oc1ccc(Br)cc1)C(=O)Nc1nc(-c2ccccn2)cs1 (stereo not drawn) | -5.7%
32 | Fc1cccc(Nc2nc(-c3ccncc3)nc3ccccc23)c1 | 15.4%
33 | O=C(O)CCCN1C(=O)c2cccc3cccc(c23)C1=O | 2.49%
34 | Cc1ccc(NC(=O)c2sc(=S)n(-c3cc(C)ccc3F)c2N)cc1 | 19.5%
35 | CCOc1ccccc1NC(=S)N(CCOC)C1CCN(C(C)=O)CC1 | -20.2%
36 | C(#CC12CC3CC(CC(C3)C1)C2)CN1CCOCC1 | 38.9%
37 | N#CCCCN1C(=O)C(O)(CC(=O)c2ccc3c(c2)OCCO3)c2ccccc21 (stereo not drawn) | 10.3%
38 | CCOc1ccc(NC(=O)CSc2nc3c(c(=O)n2-c2ccccc2OC)SCC3)cc1 | 5.04%
39 | CN(CC(=O)NC1CCN(Cc2ccccc2)CC1)S(=O)(=O)c1ccc2c(c1)c(=O)n(C)c(=O)n2C | -24.1%
40 | Cn1c(Cn2nnc3ccccc32)nnc1SCC(=O)Nc1ccc2c(c1)OCO2 | -5.62%
41 | CC(C)OC(=O)c1ccc(COC(=O)CNC(=O)c2ccco2)cc1 | 20.6%
42 | COc1ccc(C2(O)CCN(C(=O)NC3CCCCC3)CC2)cc1 | 0.0341%
43 | O=C(C1=C(Nc2ccccc2)c2ccccc2S(=O)(=O)N1)c1ccccc1 | 15.5%
44 | CN(C)S(=O)(=O)c1cc(NC(=O)COC(=O)Cc2ccc(Br)cc2)ccc1Cl | -1.29%
45 | Cc1ccc(NC(=O)CC2OC(=O)c3ccccc32)cc1S(=O)(=O)N1CCCCCC1 (stereo not drawn) | -17.9%
46 | Cc1snc(SCc2ccc(Cl)cc2)c1C#N | 17.6%
47 | O.O=C(O)[C@@H]1[C@H]2C[C@H]3c4[nH]c5ccccc5c4CCN3C[C@@H]2CC[C@@H]1O | 9.73%
48 | Cc1onc(-c2ccccc2)c1C(=O)Nc1cc(C(F)(F)F)ccc1N1CCOCC1 | -20.6%
49 | O=C(Nc1ccc(C(F)(F)F)cc1Cl)c1ccc(Cn2cc(Br)cn2)o1 | -9.82%
50 | Cc1ccc(C(=O)OCC(=O)NCc2ccc(Cl)cc2Cl)o1 | 7.93%
51 | CN(Cc1ccc(Cl)s1)C(=O)CSc1nnc(C2CC2)n1C1CC1 | -20.8%
52 | CSc1ccccc1OCc1cc(C(=O)N(C)Cc2ccncn2)no1 | 12.9%
53 | Cc1ccc(S(=O)(=O)CCC(=O)Nc2nnc(-c3ccccc3S(C)(=O)=O)o2)cc1 | 7.23%
54 | COc1ccccc1NC1=C(Cl)C(=O)N(C2CCCCC2)C1=O | 2.89%
